We go through 115 sequences from the BET-seq Pho4 binding data (Le et al. 2018).

The list shows a part of the results. Values were computed here from the reads of four pooled replicates and scatter widely.

The test concerns the target T1, Pho4 (S. cerevisiae) (UniProt P07270).
T1 sequence: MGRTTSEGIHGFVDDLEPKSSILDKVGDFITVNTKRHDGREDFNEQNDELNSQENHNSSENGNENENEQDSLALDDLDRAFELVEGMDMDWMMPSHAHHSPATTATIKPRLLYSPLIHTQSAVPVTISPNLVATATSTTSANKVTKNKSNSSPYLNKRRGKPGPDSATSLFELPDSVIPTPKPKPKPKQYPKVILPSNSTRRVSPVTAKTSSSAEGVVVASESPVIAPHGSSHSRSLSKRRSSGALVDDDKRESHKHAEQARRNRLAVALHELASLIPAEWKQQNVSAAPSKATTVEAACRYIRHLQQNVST
The test is described as follows: relative binding free energy (BET-seq); higher = weaker binding. The note with it: reference: library average.
Consider CCTGGCACGTGTTGGT, for which the “relative binding free energy” value was -0.11 kcal/mol.

With TAAGTCACGTGGTGGC, the “relative binding free energy” value worked out at 0.02 kcal/mol. As for GGAGTCACGTGCAGGG, the “relative binding free energy” value worked out at 0.07 kcal/mol. Regarding TGGTCCACGTGTAGAG, the “relative binding free energy” value was 0.13 kcal/mol. TTTTCCACGTGGACGG: the “relative binding free energy” value was found to be 0.18 kcal/mol. In the case of TTTGGCACGTGGAAAG, the “relative binding free energy” value was 0.07 kcal/mol. Consider AGTAGCACGTGGCGAG, for which the “relative binding free energy” value was -0.18 kcal/mol.

Take AAGTACACGTGGTAAT: the “relative binding free energy” value was found to be 0.09 kcal/mol. The same measure for TGGGACACGTGATGGT: 0.04 kcal/mol. Consider AATAGCACGTGGGGCG, for which the “relative binding free energy” value was -0.26 kcal/mol.

For the sequence TAGTTCACGTGTGTTT, the “relative binding free energy” value came out at 0.34 kcal/mol. In the case of CGTGGCACGTGGTAGG, the “relative binding free energy” value is -0.17 kcal/mol. For TCAGTCACGTGGTGTT, the “relative binding free energy” value was -0.04 kcal/mol. Regarding GCTTTCACGTGGGGTT, the “relative binding free energy” value worked out at 0.27 kcal/mol. Consider CAATTCACGTGATGTT, for which the “relative binding free energy” value came out at 0.27 kcal/mol. The same measure for TGTGACACGTGAAATG: 0.19 kcal/mol; for TAGTACACGTGACGTT: 0.16 kcal/mol. Next, TTGGACACGTGTATGG: 0.06 kcal/mol. Turning to AGGGGCACGTGGGTGC, the “relative binding free energy” value was -0.27 kcal/mol. Take TTTATCACGTGTCATG: the “relative binding free energy” value amounted to 0.33 kcal/mol.

As to GGATTCACGTGAAGTA, the “relative binding free energy” value turned out to be 0.29 kcal/mol. For the sequence GGGTTCACGTGATTCA, the “relative binding free energy” value came out at 0.33 kcal/mol.

With TGGTGCACGTGTTTCA, the “relative binding free energy” value was 0.07 kcal/mol. For the sequence AGCTGCACGTGGGCGG, the “relative binding free energy” value was -0.26 kcal/mol. The same measure for GTTGGCACGTGTCAAT: 0.01 kcal/mol; for GTATGCACGTGGTAGA: -0.08 kcal/mol; for GGATTCACGTGTGCGT: 0.22 kcal/mol. The same measure for GGTGACACGTGATGTA: 0.14 kcal/mol; for TAGATCACGTGGCTTG: 0.1 kcal/mol; for CTATACACGTGTTGTT: -0.08 kcal/mol.

For ATGTTCACGTGCTATG, the “relative binding free energy” value turned out to be 0.23 kcal/mol. GTGGGCACGTGGGATT: the “relative binding free energy” value was -0.08 kcal/mol.

Turning to CTGGGCACGTGCGATG, the “relative binding free energy” value was -0.1 kcal/mol. As to ATGCGCACGTGGAGGC, the “relative binding free energy” value was -0.02 kcal/mol. The same measure for TTCTTCACGTGAGCAG: 0.61 kcal/mol; for GTAGCCACGTGCGTGT: -0.06 kcal/mol; for GGTGACACGTGCAAGT: 0.17 kcal/mol.

Regarding TATGGCACGTGAAGAA, the “relative binding free energy” value amounted to 0.1 kcal/mol.

For the sequence AAGTACACGTGCTGGT, the “relative binding free energy” value is -0.08 kcal/mol. As for ATGGGCACGTGTCGGT, the “relative binding free energy” value is -0.12 kcal/mol. On to GATTTCACGTGAGGAA, for which the “relative binding free energy” value was 0.39 kcal/mol. In the case of TAACTCACGTGATGGT, the “relative binding free energy” value was determined as 0.29 kcal/mol. The same measure for TCGAGCACGTGGGAGG: -0.18 kcal/mol. Turning to TCGGCCACGTGTTGTA, the “relative binding free energy” value was found to be 0.01 kcal/mol. Turning to GGGGACACGTGTGAAT, the “relative binding free energy” value stood at 0.22 kcal/mol. As for AGGGTCACGTGCTTAG, the “relative binding free energy” value worked out at 0.08 kcal/mol. As for CGATTCACGTGGGCGT, the “relative binding free energy” value was 0.28 kcal/mol.

Consider TGTGGCACGTGTTACT, for which the “relative binding free energy” value is -0.2 kcal/mol.

With TTTCGCACGTGGGGTG, the “relative binding free energy” value is -0.13 kcal/mol. Take TGTGTCACGTGAGTTG: the “relative binding free energy” value was 0.21 kcal/mol. Regarding GATTTCACGTGAGAGA, the “relative binding free energy” value was 0.54 kcal/mol. Turning to TGGTGCACGTGAGTAT, the “relative binding free energy” value is 0.16 kcal/mol.

GTATGCACGTGTTATG: the “relative binding free energy” value is 0.04 kcal/mol.

With AGCGTCACGTGAGATT, the “relative binding free energy” value amounted to 0.22 kcal/mol. Next, TAGGGCACGTGGTTAT: -0.11 kcal/mol. TTGTTCACGTGAGTTG: the “relative binding free energy” value was determined as 0.42 kcal/mol. For the sequence TTAGGCACGTGGAACG, the “relative binding free energy” value was -0.13 kcal/mol.

On to GCGTGCACGTGGGAAA, for which the “relative binding free energy” value stood at 0.04 kcal/mol. Next, GGCTTCACGTGCTGGA: 0.41 kcal/mol. On to TAGTGCACGTGTGTAA, for which the “relative binding free energy” value was 0.01 kcal/mol.

Turning to TAGTTCACGTGAAAAT, the “relative binding free energy” value was 0.35 kcal/mol. For the sequence CGAGGCACGTGTAAGA, the “relative binding free energy” value came out at 0.24 kcal/mol.

Regarding AGTGACACGTGTACAG, the “relative binding free energy” value came out at 0.02 kcal/mol.

For the sequence AGGGCCACGTGCTGTG, the “relative binding free energy” value is -0.2 kcal/mol. For the sequence TGTCGCACGTGTGCGG, the “relative binding free energy” value was -0.03 kcal/mol. With TTGATCACGTGCGTAT, the “relative binding free energy” value stood at 0.2 kcal/mol. Next, AATTTCACGTGATGCG: 0.37 kcal/mol. Consider TTGGTCACGTGACGCA, for which the “relative binding free energy” value worked out at 0.42 kcal/mol. With GGTGCCACGTGGCGTA, the “relative binding free energy” value was -0.14 kcal/mol. Consider AGTTTCACGTGGTCTG, for which the “relative binding free energy” value was 0.27 kcal/mol.

Turning to TTATGCACGTGTCAGG, the “relative binding free energy” value amounted to 0 kcal/mol. Consider TGAGTCACGTGTAAGG, for which the “relative binding free energy” value is 0.23 kcal/mol.

In the case of AGTAGCACGTGTAGGT, the “relative binding free energy” value was -0.05 kcal/mol.

Regarding TAATGCACGTGGCGTA, the “relative binding free energy” value was -0.1 kcal/mol. As for TATCGCACGTGTGTGC, the “relative binding free energy” value was 0.03 kcal/mol. In the case of TCGTGCACGTGGATGG, the “relative binding free energy” value is -0.05 kcal/mol.

Consider TTAAACACGTGGGTAC, for which the “relative binding free energy” value was 0.06 kcal/mol. Take GCTTGCACGTGTTCGT: the “relative binding free energy” value came out at 0.07 kcal/mol. As for AGTATCACGTGGGTTT, the “relative binding free energy” value came out at 0.08 kcal/mol.

With AGTGTCACGTGATGGA, the “relative binding free energy” value turned out to be 0.19 kcal/mol. As to CGTTTCACGTGGTATA, the “relative binding free energy” value was 0.19 kcal/mol.

For the sequence AATTTCACGTGTAGTT, the “relative binding free energy” value was 0.28 kcal/mol. On to GGATGCACGTGCAGTT, for which the “relative binding free energy” value was found to be 0.01 kcal/mol. In the case of GCGGACACGTGGTTGC, the “relative binding free energy” value was found to be 0.28 kcal/mol. Next, TTAATCACGTGTTCAT: 0.19 kcal/mol. Consider GGTGCCACGTGAGCGT, for which the “relative binding free energy” value was determined as 0.15 kcal/mol. On to GGGTGCACGTGTTGGC, for which the “relative binding free energy” value is 0.05 kcal/mol. GATGGCACGTGTCGTA: the “relative binding free energy” value is 0.03 kcal/mol. As for CTTTGCACGTGGTGAT, the “relative binding free energy” value was determined as 0.02 kcal/mol.

Consider TTCGGCACGTGGCTTT, for which the “relative binding free energy” value is -0.2 kcal/mol. In the case of GTATGCACGTGTAAAT, the “relative binding free energy” value came out at 0.37 kcal/mol.

Take ATTTTCACGTGCGGTT: the “relative binding free energy” value came out at 0.16 kcal/mol.

Turning to ATTAGCACGTGAGGGA, the “relative binding free energy” value is 0.16 kcal/mol. For the sequence GGCGGCACGTGCAGGA, the “relative binding free energy” value was found to be 0.03 kcal/mol. In the case of TTCGACACGTGGTTAT, the “relative binding free energy” value was -0.09 kcal/mol. For GTGGTCACGTGAATCT, the “relative binding free energy” value turned out to be 0.36 kcal/mol. As for GTTGTCACGTGGTAGG, the “relative binding free energy” value was 0.08 kcal/mol. TTTGGCACGTGGAATA: the “relative binding free energy” value came to 0.05 kcal/mol. TGGTGCACGTGTCAAT: the “relative binding free energy” value is -0.03 kcal/mol. TATTACACGTGTCTGG: the “relative binding free energy” value came out at 0.09 kcal/mol.

Take TAAGGCACGTGTGTCT: the “relative binding free energy” value was -0.09 kcal/mol.

In the case of TTCGTCACGTGTAGAG, the “relative binding free energy” value was determined as 0.12 kcal/mol. Consider ATTTACACGTGATATT, for which the “relative binding free energy” value turned out to be 0.23 kcal/mol.

Turning to GGGTGCACGTGAGCAA, the “relative binding free energy” value turned out to be 0.17 kcal/mol. Consider GGGAGCACGTGTTTGG, for which the “relative binding free energy” value is -0.07 kcal/mol. Regarding GTTTACACGTGTTCAG, the “relative binding free energy” value was found to be 0.19 kcal/mol. For the sequence GAGGTCACGTGCGGAT, the “relative binding free energy” value was determined as 0.12 kcal/mol. Turning to TTGATCACGTGTGAGC, the “relative binding free energy” value came out at 0.19 kcal/mol. The same measure for AGTGTCACGTGTGCGG: 0.17 kcal/mol. As for CAGTTCACGTGTAGGA, the “relative binding free energy” value was 0.23 kcal/mol. Take CTGGGCACGTGAACGG: the “relative binding free energy” value came to 0.18 kcal/mol. As to GTTAGCACGTGGGTCA, the “relative binding free energy” value is -0.16 kcal/mol.

In the case of ACTGTCACGTGGTGGG, the “relative binding free energy” value amounted to 0 kcal/mol.

Consider AGGGCCACGTGTGCTG, for which the “relative binding free energy” value is -0.01 kcal/mol.

On to AGAGACACGTGTGGTG, for which the “relative binding free energy” value is -0.04 kcal/mol.
